Experimental data as given in the supplement of paper PMC11876631.
Numbering of substitutions follows the chain as printed. Numbers in names are those of the source. ± gives the standard deviation of the averaged measurements. Laboratory Escherichia coli strains with one amino-acid change in an essential protein, pooled on minimal glucose agar with carbenicillin or gentamicin at twice the control MIC (plus kanamycin and chloramphenicol for the plasmids), 48 h. Fold change of barcode share against drug-free plates; higher = less susceptible. Active = above 20 in both replicates (the paper's putatively resistant). '<' = one read or none on drug, '>' = one read or none on a drug-free plate. Shares are relative, so most strains fall below 1 when a few take over. Listed are strains with at least 15 reads on both drug-free plates, and hits; most hits rest on fewer reference reads. Replicate rank correlation about 0.5. Edits are read from barcodes.

B1: ilvD I36P (protein)
chain: MPKYRSATTTHGRNMAGARALWRATGMTDADFGKPPIAVVNSFTQFVPGHVHLRDLGKLVAEQIEAAGGVAKEFNTIAVDDGIAMGHGGMLYSLPSRELIADSVEYMVNAHCADAMVCISNCDKITPGMLMASLRLNIPVIFVSGGPMEAGKTKLSDQIIKLDLVDAMIQGADPKVSDSQSDQVERSACPTCGSCSGMFTANSMNCLTEALGLSQPGNGSLLATHADRKQLFLNAGKRIVELTKRYYEQNDESALPRNIASKAAFENAMTLDIAMGGSTNTVLHLLAAAQEAEIDFTMSDIDKLSRKVPQLCKVAPSTQKYHMEDVHRAGGVIGILGELDRAGLLNRDVKNVLGLTLPQTLEQYDVMLTQDDAVKNMFRAGPAGIRTTQAFSQDCRWDTLDDDRANGCIRSLEHAYSKDGGLAVLYGNFAENGCIVKTAGVDDSILKFTGPAKVYESQDDAVEAILGGKVVAGDVVVIRYEGPKGGPGMQEMLYPTSFLKSMGLGKACALITDGRFSGGTSGLSIGHVSPEAASGGSIGLIEDGDLIAIDIPNRGIQLQVSDAELAARREAQDARGDKAWTPKNRERQVSFALRAYASLATSADKGAVRDKSKLGG
B2: ilvD I37A (protein)
chain: B1 chain with P36I, I37A
B3: ilvD I37W (protein)
chain: B1 chain with P36I, I37W
B4: ilvD I37P (protein)
chain: B1 chain with P36I, I37P
B5: ilvD F43Q (protein)
chain: B1 chain with P36I, F43Q
B6: ilvD F43P (protein)
chain: B1 chain with P36I, F43P
B7: ilvE V51A (protein)
chain: MTTKKADYIWFNGEMVRWEDAKVHVMSHALHYGTSVFEGIRCYDSHKGPVAFRHREHMQRLHDSAKIYRFPVSQSIDELMEACRDVIRKNNLTSAYIRPLIFVGDVGMGVNPPAGYSTDVIIAAFPWGAYLGAEALEQGIDAMVSSWNRAAPNTIPTAAKAGGNYLSSLLVGSEARRHGYQEGIALDVNGYISEGAGENLFEVKDGVLFTPPFTSSALPGITRDAIIKLAKELGIEVREQVLSRESLYLADEVFMSGTAAEITPVRSVDGIQVGEGRCGPVTKRIQQAFFGLFTGETEDKWGWLDQVNQ
B8: ilvE V51W (protein)
chain: B7 chain with A51W
B9: ilvE F52W (protein)
chain: B7 chain with A51V, F52W
B10: ilvE I101A (protein)
chain: B7 chain with A51V, I101A

Target: Escherichia coli (laboratory strain)
Experiment: barcode share on antibiotic plates over drug-free plates; higher = less susceptible
Procedure: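 A pool of E. coli strains, each edited to carry one amino-acid change in an essential protein, was grown for 48 h on minimal glucose agar with or without antibiotic; strain barcodes were sequenced; mean of two replicates.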

[1] = antibiotic: carbenicillin, 2× MIC (3.1 µg/mL)
[2] = antibiotic: gentamicin, 2× MIC (MIC 0.45 µg/mL)

Protein | fold change of barcode share [1] | fold change of barcode share [2]
B1 | > 52.7 [active] | 
B2 | 2.25 ± 1.2 | 
B3 | 29.6 [active] | 
B4 | > 54.1 [active] | 
B5 | > 32.6 [active] | 
B6 | > 37.3 [active] | 
B7 | 0.254 ± 0.033 | 0.0101 ± 0.0067
B8 | 0.307 ± 0.17 | < 0.0116
B9 | 0.706 ± 0.43 | < 0.00345
B10 | 0.752 ± 0.2 | 0.00946 ± 0.0061
